{"source": "PubChem BioAssay AID555", "about": "(SRMLSC, 2006)", "note": "The list shows a part of the results. Shown are side measurements of this screen, not its main read-out; they come without a call. Most of these compounds were active or inconclusive in the main read-out, so they are no random draw.", "data": [{"system": "mevalonate kinase [Streptococcus pneumoniae D39]", "experiment": "pneumococcal mevalonate kinase activity blockers – biochemical, PK/LDH-coupled NADH absorbance, primary screen (AID 555)", "settings": "purified MK, PK/LDH-coupled NADH absorbance 340 nm; measured here: pilot screen replicates; at 10 µM; stronger effect = higher value", "units": {"inhibition": "%"}, "values": [{"smiles": "COc1ccc(CN2CCN(C(=O)Cc3ccccc3)CC2)c(OC)c1", "inhibition": 3.5}]}]}
